Laboratory results as given in the supplement of paper PMC11417369.
The list shows a part of the results.

Tested on: PF3D7_0420300 AP2 domain 1 (GST-tagged)
Test: gcPBM binding intensity (ln(normalized median fluorescence intensity)); higher = stronger DNA binding
Procedure, shortened: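 For binding intensity, the highest Masliner-normalised natural-log median intensity across replicate spots of either probe orientation was taken. Protein bound to the array was stained with Alexa488 anti-GST antibody and scanned at 488 nm. The protein, GST-tagged P. falciparum DNA-binding domains from E. coli at about 25 μg on average, had been applied for 1 h to an Agilent 4 × 180k array of primer-extended double-stranded 36-bp intergenic genomic probes and negative controls.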

Sequence	gcPBM binding intensity (ln)
TATTTATATTTATACACACACACAAAAAAAAAAAAA [CACACA_site6817]	9.94
TTGTTTTCTTTTTCTTTTCTTTTTCTTTTTTCTTTT [GTGCAC_negctrl_site629]	9.45
TATATATATATAAAGACACACATCTATAGAATGTTA [CACACA_site2557]	9.31
AAAAAAAAAAAAAAAGCACACACACCGATGTGTATA [CACACA_site8224]	9.99
TATATATATATACCTTGTACTTACATTCGCATATAA [XGTACX_site2466]	9.32
ACATAAATATATGACACACACACATATTATATATAT [CACACA_site3065]	10
GTATAATTATGTGCACGTACATATTTTATTATATAT [XGTACX_site8586]	9.56
CCATTACCATATAAAACACACAAACATACATACATA [CACACA_site5952]	9.82
TAATATATATAACAAGTGCAAAAAAATATAGATATT [GTGCAC_site9625]	9.57
GAGAACATTGATACACGTACATAAGTTATAAGTATT [XGTACX_site7665]	9.39
AAGCATCCTACTGATTGTACATATATATATATATAT [XGTACX_site2150]	9.39
AATAAACAAATAAATAAATAAACAGATAAATAAATC [CACACA_negctrl_site920]	9.8
TTAGGTTATAAATACACACACAAAAGAAAAAAAAAA [CACACA_site5625]	9.88
TTTATTTATATAATTACACACATATATACACAAATG [CACACA_site8903]	9.53
TATTTAAATTAATATTGTACATATATTTATAATATA [XGTACX_site6109]	9
AAATATATTATATATGCATGCGCCAAGATTTATATA [TGCATGCA_site770]	9.11
TTGCATCTATTTTTGAGTACACAATGAGAATAATTA [XGTACX_site7171]	9.01
AAAAATAAATATACATGTACATAATAATAATATATA [XGTACX_site8359]	9.43
TTTGAAAAAAAATATTGTACACGTGAATAAAGTATT [XGTACX_site644]	9.3
TATATATATATATATATATATATATATATAATTTGA [XGTACX_negctrl_site3]	8.83
AAAAAAAAAAGACACACACACACATACACATACATA [CACACA_site7362]	10.2
TTAAAAAAGTAATTAACACACAATAATGTAATGCAT [CACACA_site4176]	9.48
TTATTATATATGTTCACATAAATACATAAATATATA [GTGCAC_negctrl_site529]	9.02

Sequence	gcPBM binding intensity (ln)
ACCCAAAATATATTCACACAAAAAATATTAAAAATA [CACACA_site5433]	9.27
AACTGATATTAATTCTGTACCTATACGTTATATGTT [XGTACX_site1003]	9.49
AAGCGAATCTATATCACACACAAAAAAATCAGACTA [CACACA_site7072]	9.62
AGTTCAGAATTGAATAGTACATAAATATAACAAAAT [XGTACX_site650]	9.51
TATGAACATATATATTGTACAAAATTATAATTTCAA [XGTACX_site6406]	9.13
TATATATATTCTTTGTGTACTCATATAAGGGTAGAA [XGTACX_site8121]	9.13
AATCAATATTATATATGTACTTATTTTCACTTTTGC [XGTACX_site1775]	9.26
TTTTTAGAAAAGGTTATAAAAAATTAATTGAAAAAA [GTGCAC_negctrl_site289]	8.7
TTGTCATTATTATATTGTACAATAAGTATTAAAGAA [XGTACX_site1205]	9.18
ATTTTAATTTTGTATACACACATTTGAATTATTAAT [CACACA_site3528]	9.54
AAATAATACATTCGTACTACACATATATATTAAATA [XGTACX_site7806]	9.33
AATATATACATATATACACACACATATATATATATA [CACACA_site8907]	9.75
TAAAATGTTATAAGAACATGCAATTCCTTTTATTAT [TGCATGCA_site408]	9.03
ATATATTATATTATATGTACTTAAAAAAGTGCAAAG [XGTACX_site318]	9.03
TATATTCAATTTTTGGTGCGTAAATTAATACAAACA [GTGCAC_site9764]	9.06
CGGACATACTAACGGACACACGTAAGAAAAAAAAAG [CACACA_site4504]	9.48
ATGCACGGAAAAATATGTACTTAATTTCAATAATAT [XGTACX_site8311]	9.28
TATATGTCCATATTTCCACACACATATTATTTTTAT [CACACA_site9266]	9.81
TTTTTTCAATAAATAATCGTATATTGAATAATAATA [CACACA_negctrl_site822]	8.85
AGAGAGAACGGTATAACATGCGATAAATTTTAGAAG [TGCATGCA_site357]	9.44
TATTAATTTTTCCTTTTTTTTTTACCCCTTTGTACA [CACACA_negctrl_site947]	9.19
TATATATTTTATATATGTACATATTTATATGTTTCT [XGTACX_site1818]	9.19
CGCGAACATACATACACACACATATATATATATGTA [CACACA_site205]	9.76

Sequence	gcPBM binding intensity (ln)
TTTTTTTTTTTTTGAACACACATTATTAACTTTTAT [CACACA_site6281]	9.19
AAAAAAAAGTTATATACACACATATAAATATAAATA [CACACA_site6683]	9.56
CATGTAAAATATTAAAGTACATGATTATATATATAT [XGTACX_site7486]	9.26
AAAAATATTAAAAGGCGTACAATACCTGTATGCAAC [XGTACX_site6069]	9.38
AGCTAAAATATTTTTGCACACGATTTTTTTTTTTTT [CACACA_site1140]	9.29
TATATTTATATAATATGTACATATTTTTTAATATTT [XGTACX_site3834]	9.03
TATTTTATTTTCCGAAGTACAAAAGCAAAAAAAAAC [XGTACX_site103]	9.19
ATAATATGAGTCCCACAAAATAGACCATACGAATAT [CACACA_negctrl_site50]	9.4
TATAAATTTATACCAGTGCATTTTGAAATATATATA	9.2
TGGAACCATAAAAAGTGTACACATATAAAAAATATG [XGTACX_site96]	9.35
TTTTTTTTTTTCTCCATACACACTTGATAAAACTTT [CACACA_site615]	9.29
ATTTTTTTTTTTTGTACATACCACATATACAAAACA [CACACA_negctrl_site1240]	9.25
TAATTGATTCTTCACCGTACTCACACATATATATAT [XGTACX_site6530]	9.53
ATATATTATAAATGTAGTACCGTTACATAGTCATAG [XGTACX_site390]	9.35
CACACCACCAACAAAAGTACATACATATATATATAT [XGTACX_site5781]	9.27
TATATATTGCCCTTCACACACACACCCATATATATA [CACACA_site2493]	10.2
ACTACGAGTCGTAGAGTGCAGTCTGGAGAAAAGTAC [GTGCAC_site9769]	9.16
ATCAAGCACGAACACACACACACACGCACGCCCACA [CACACA_site6308]	10.2
TATTTATACATACGTACACACAAATATTAAAATATA [CACACA_site7004]	9.32
AAAAAAAAAAAAAAATCACACATTGGTTAAATATTA [CACACA_site5344]	9.13
CTATCAAATAATAGCAAACACACAAAAAATAAAAAA [CACACA_site4147]	9.73
ATTCATACATGCACACGTACATATTTAAATATAAAA [XGTACX_site8388]	9.41
ATTTTTTATGAAAACATAAAAAAATGAGATAACCAT [CACACA_negctrl_site894]	9.17

Sequence	gcPBM binding intensity (ln)
TTTTGATTTTTTTATTGTACCCATAAACATATAATT [XGTACX_site5202]	9.22
GGTATTTATGGACGCGTGCACACACATATGAACAAA	9.7
TATTTTTGAAGTTGCACACACAAAAATAAAAAGTAT [CACACA_site418]	9.52
TACAAACAATTAAACAAACACACATATACATGTATA [CACACA_site2061]	9.68
TCATGTTTTTAATATTGTACTCTCATTTTATATATC [XGTACX_site8412]	9.49
ATATTTACTCACGTCTTGCACTGAGCAAGCATTATA	9.02
AGCTATTAATTTATTACATGCAAGATTAAAAGACTA [TGCATGCA_site281]	8.99
ATATATATATATAATTGTACATTTTTAACCTTAACA [XGTACX_site7910]	9.21
TTTTATGTTTTTTTTATAAATATTAAAATTCTATAT [CACACA_negctrl_site1477]	8.87
ATATTGTTATATGTTTGTACATATTTTTTATATTTT [XGTACX_site6834]	9.59
AATGTTAAAAATGAAAGTACATGGAATTTATTATTT [XGTACX_site4095]	9.31
AAAAAAAAAAAATACACACACACATATAAATATGTA [CACACA_site6900]	10
GTTTATATATGCTTATAATTTTCAATTGTTTTACAA [TGCATGCA_negctrl_site384]	9.22
GACATTAATTATTTGACACACGACTGGGTGGTGATT [CACACA_site306]	9.37
TGATTCAATTTATGCACACTAAAAATTAATTATATT [CACACA_site271]	9.22
TTTTTTTTTTATACATGTACTTAAAAGTAGCACCTT [XGTACX_site1855]	9.01
ATTATATATACAACAAGTACAAAAGAAAAATATTAT [XGTACX_site2914]	9.63
TTTGTAAAAGGTCATACACACATATTCAAAAGAAGT [CACACA_site2947]	9.71
TATAAATACATCCTATACTTCTCTTTTACAGTTTTA [CACACA_negctrl_site1283]	9.29
ATATATATATATAGGAGTACATGAAATACTTAAAAA [XGTACX_site8851]	9.32
